± gives the uncertainty stated by the source. The full ranking holds about 9,900 compounds; the median of “viability index relative to DMSO control” is about 1, and the lowest 2% start at about 0.85. Some of the results follow.

Here are results for 20 compounds from the supplement of paper PMC4723716.

This experiment deals with Plasmodium falciparum NF54 stage V gametocytes. The experiment in a line: viability index relative to DMSO control (fraction); higher = less gametocyte killing. To be noted: 2.5 µM, library set: Broad Institute DOS, incubation time: 72 h. In a few lines:
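Compound at 2.5 µM was incubated for 72 hr at 37°C under low oxygen with P. falciparum NF54 stage V gametocytes (0.75% gametocytemia, 1.25% hematocrit, 10 µl, serum-free screening medium) in 1,536-well plates. Staining used 3 µl of 2.5 µM MitoTracker Red CMXRos plus 0.13% saponin for one to two hours, and red particles of 20–70 µm2 were counted in one imaged field per well. Each viability index is that count relative to the plate mean of solvent-only wells.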
Compound `O=S(=O)(c1ccccc1)N1CCCCN2[C@H](C1)[C@@H](c1ccc(C#CC3CCCC3)cc1)[C@@H]2CO` came in with a viability index of 0.907 ± 0.07. With `C[C@@H]1CN([C@H](C)CO)S(=O)(=O)c2ccc(-c3cncnc3)cc2O[C@H]1CN(C)C(=O)NC1CCCC1` the figure was 1.01 ± 0.038; with `COCC(=O)N1CC(=O)N2[C@H](C1)[C@@H](c1ccc(C#CC3CC3)cc1)[C@@H]2CO`, 0.96 ± 0.041; with `CS(=O)(=O)N1[C@H](C#N)[C@H](c2ccccc2-c2ccccc2F)[C@@H]1CO`, 1.07 ± 0.11. With `CO[C@@H]1CC[C@H]2CCOc3c(C#N)cccc3C(=O)N(C)C[C@H](c3ccccc3)CC(=O)N(C)C[C@H]1O2` the figure was 1.13 ± 0.066; with `COCC(=O)Nc1ccc2c(c1)C(=O)N(C)[C@@H]1CC[C@H](CC(=O)NCCCN(C)C)O[C@H]1CO2`, 0.948 ± 0.14; with `Cc1cc(C(=O)Nc2ccc3c(c2)C(=O)N(C)[C@@H]2CC[C@@H](CC(=O)O)O[C@@H]2CO3)no1`, 1.09 ± 0.069. For `CC(C)c1cccc(NC(=O)C[C@H]2CC[C@H]3[C@@H](COc4ccc(NC(=O)c5cnccn5)cc4C(=O)N3C)O2)c1`, the viability index turned out to be 1.07 ± 0.049. Under `C[C@@H](NC(=O)C[C@H]1CC[C@@H]2[C@H](COC[C@@H](O)CN2C(=O)Nc2cccc(Cl)c2)O1)c1ccccc1` stands 1.19 ± 0.041; under `COc1ccc2c3c([nH]c2c1)[C@@H](CO)N(Cc1ccccc1F)C[C@]31CN(CC2CC2)C1`, 1.04 ± 0.058; under `O=C(C[C@H]1C[C@@H]2c3cc(NC(=O)NC4CCCC4)ccc3O[C@@H]2[C@@H](CO)O1)NCc1ccccc1F`, 0.974 ± 0.034. `CC(=O)N1[C@H](CO)[C@H](c2ccc(C3=CCCC3)cc2)C12CN(C(=O)NC(C)C)C2` returned a viability index of 1.1 ± 0.012. With `COc1ccc2c3c([C@@H](CO)N(Cc4cccnc4)C[C@]33CN(C3)C(=O)c3cccnc3)n(C)c2c1` the figure was 1.01 ± 0.017.

In the case of `CO[C@H]1CN(C)C(=O)c2ccc(NC(=O)c3ccccc3F)cc2OC[C@H](C)N(C)C[C@@H]1C`, the viability index was found to be 1.12 ± 0.085.

Compound `C/C=C/c1ccc([C@H]2[C@@H](CO)N(C(C)=O)[C@@H]2CNC(=O)c2ccccc2)cc1` came in with a viability index of 1.075 ± 0.0042.

The compound `CCCC(=O)N1C[C@@]2(C1)CN([C@H](CO)c1[nH]c3cc(OC)ccc3c21)C(=O)c1ccc(F)cc1` registered a viability index of 0.994 ± 0.026. With `Cc1cccc(S(=O)(=O)N2[C@@H]3Cn4c(cccc4=O)[C@H]2[C@@H](C(=O)N(C)C)[C@@H]3CO)c1` the figure was 1.07 ± 0.084. In the case of `C[C@@H]1CN([C@H](C)CO)C(=O)c2cccc(NC(=O)c3ccc(-c4nccs4)cc3)c2O[C@@H]1CN(C)C(=O)Nc1ccc(C(F)(F)F)cc1`, the viability index worked out at 0.939 ± 0.051. With `CNC[C@H]1Oc2ccc(NC(=O)CCC(F)(F)F)cc2C(=O)N([C@@H](C)CO)C[C@@H]1C` the figure was 0.982 ± 0.038. Under `CCS(=O)(=O)Nc1ccc2c(c1)C(=O)N(C)[C@@H]1CC[C@@H](CC(=O)N3CCN(C)CC3)O[C@H]1CO2` stands 1.07 ± 0.061.
